Reference: PubChem BioAssay AID2451 (National Center for Advancing Translational Sciences (NCATS), 2010)
About 2,100 (0.72%) of roughly 290,000 compounds were called active. Inconclusive results, whose numbers are uncertain, are shown with a selection of clear calls. Calls follow the shape of the dose curve; as a rule, active = well fitted inhibition curve with a large enough effect; inconclusive = small, poorly fitted or top-dose-only effect, or effect the other way; inactive = flat fitted curve, though single readings scatter. Potencies of inconclusive entries are doubtful fits and often do not repeat.

Target: Fructose-bisphosphate aldolase (Giardia intestinalis (strain ATCC 50803 / WB clone C6)) (UniProt A8B2U2)
Sequence of UniProt A8B2U2 (A8B2U2 whole entry, looked up): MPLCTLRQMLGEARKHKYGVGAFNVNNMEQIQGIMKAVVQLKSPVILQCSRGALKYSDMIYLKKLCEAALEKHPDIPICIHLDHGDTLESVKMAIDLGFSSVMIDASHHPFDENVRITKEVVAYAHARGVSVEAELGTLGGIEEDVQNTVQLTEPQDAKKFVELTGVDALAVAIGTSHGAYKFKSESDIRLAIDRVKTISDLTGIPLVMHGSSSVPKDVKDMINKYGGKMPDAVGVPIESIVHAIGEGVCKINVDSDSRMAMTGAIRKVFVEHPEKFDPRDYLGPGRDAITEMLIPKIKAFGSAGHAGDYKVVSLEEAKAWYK
Assay: qHTS Assay for Inhibitors of Fructose-1,6-bisphosphate Aldolase from Giardia Lamblia; also: nearly all actives have a fitted effect of over 55% in size
Settings: purified Giardia FBPA; series mostly up to 59.6 µM
Procedure, shortened: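 Giardia FBPA (40 nM reagent) was preincubated 10 min at RT with compound (up to 57.5 uM final), then substrate plus GAPDH/TPI/NAD/arsenate coupling system with diaphorase/resazurin was added; resorufin fluorescence (525/598 nm) was read after 20 min.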
Potency is read from the fitted curve at half-maximal effect; tags tell the direction and shape of the fitted curve.

Row | Compound | Potency
1 | CCOC(=O)c1sc2nc3c(SCCC(=O)O)cc(C(=O)c4cc(OC)ccc4O)cn3c(=O)c2c1C | inconclusive: 19.9 µM [inhibitor, single point]
2 | O=C(Nc1nnc(CCc2ccccc2)s1)c1cccs1 | inactive
3 | CCN(CC)c1cc(C)c2cc(NC(=O)c3ccccc3F)ccc2n1 | inactive
4 | COC(CNC(=O)C1CCN(S(=O)(=O)c2ccc3nc4c(c(C(=O)O)c3c2)CC(C)CC4)CC1)OC (stereo not drawn) | inconclusive: 31.6 µM [inhibitor, single point]
5 | CCCCc1cc(=O)oc2c(C)c(OCc3nn[nH]n3)ccc12 | inconclusive: 17.7 µM [activator, single point]
6 | CCOC(=O)c1cnc(-n2nc(C)cc2C)nc1Oc1ccccc1F | inconclusive: 15.8 µM [inhibitor, single point]
7 | C=CCNC(=S)Nc1cccc2ccccc12 | active: 15.8 µM
8 | N=c1oc2c3c4c(cc2cc1C(=O)Nc1ccccc1)CCCN4CCC3 | inconclusive: 17.7 µM [inhibitor, partial curve]
9 | O=C(COc1ccc(Br)cc1)N1CCC(c2ccccc2)C1 (stereo not drawn) | inactive
10 | COc1ccc(/C=C/C(=O)NCC(=O)N2CCC(N(C)CCN3CCOCC3)CC2)cc1OC | inconclusive: 19.9 µM [inhibitor, partial curve]
11 | O=[N+]([O-])c1ccc(CN2CCN(c3ccc(Cl)cc3)CC2)o1 | inconclusive: 15.8 µM [inhibitor, single point]
12 | C/C(=C\c1ccc(C(=O)O)cc1)c1ccc2c(c1)C(C)(C)CCC2(C)C | inconclusive: 25.1 µM [activator, partial curve]
13 | Cc1ccc(OCCNCC(O)COc2ccccc2)cc1 (stereo not drawn) | inconclusive: 35.5 µM [inhibitor, single point]
14 | CCOc1ccc(Cl)cc1/C=N/NC(=O)CNC(=O)c1ccccc1 | inconclusive: 17.7 µM [inhibitor, partial curve]
15 | CCC(C)C(=O)Nc1nccs1 (stereo not drawn) | inconclusive: 19.9 µM [inhibitor, single point]
16 | O=C(NCCCl)Nc1ccccc1OCCOc1ccccc1NC(=O)NCCCl | inactive
17 | O=C(CNCc1ccncc1)Nc1cc(S(=O)(=O)N2CCCCC2)ccc1Cl | inconclusive: 15.8 µM [inhibitor, partial curve]
18 | Cn1c(C(=O)NCCN2CCc3ccccc3C2)cc2c(=O)n(C)c3ccccc3c21 | inconclusive: 14.1 µM [inhibitor, partial curve]
19 | O=C(O)C(c1ccccc1)N1C(=O)c2cccc3cccc(c23)C1=O (stereo not drawn) | inactive
20 | COc1ccc(OC)c(Cc2nnc(CCC(=O)N3CCCCCC3)o2)c1 | inconclusive: 17.7 µM [inhibitor, partial curve]
21 | Cc1ccc(NC(=O)CSC2=C(C#N)C(c3ccco3)C3=C(CCCC3=O)N2)cc1 (stereo not drawn) | inconclusive: 14.1 µM [inhibitor, partial curve]
22 | S=C(Nc1ccc2nccnc2c1)N1CCOCC1 | active: 14.1 µM
23 | COc1cc(CNc2ccc3[nH]c(=O)[nH]c3c2)cc(Cl)c1OCC(=O)NC(C)(C)C | active: 9.98 µM
24 | CC(C)(C)NC(=O)/C(=C/c1ccco1)c1ccccc1 | inactive
25 | O=C(C1CCN(Cc2ccc(F)cc2)CC1)N1CCN(C/C=C/c2ccccc2)CC1 | inconclusive: 14.1 µM [inhibitor, partial curve]

Row | Compound | Potency
26 | COc1ccc2c(c1)NC(c1ccc(N(C)C)cc1)c1cccn1-2 (stereo not drawn) | inconclusive: 5.61 µM [inhibitor, full curve]
27 | C=CCNC(=O)c1onc(CSc2ccc(C(C)C)cc2)c1C(=O)O | inconclusive: 22.3 µM [activator, single point]
28 | O=C(c1cnc2sccn2c1=O)N1CCc2ccccc2C1 | inconclusive: 15.8 µM [inhibitor, single point]
29 | CCN(/C=N/S(=O)(=O)c1ccc(Cl)cc1)CC | inactive
30 | COCC(C)NC(C(=O)Nc1ccc(Cl)c([N+](=O)[O-])c1)c1ccccc1 (stereo not drawn) | inconclusive: 15.8 µM [inhibitor, single point]
31 | C/C(N)=C(/C#N)C(=O)CSc1nc2ccccc2c(=O)n1Cc1ccc(C)cc1 | inactive
32 | CC(=O)C(Sc1ccc2nnc(-c3cccnc3)n2n1)C(C)=O | inconclusive: 28.1 µM [inhibitor, single point]
33 | COc1ccc(N2C(=O)c3ccccc3S2(=O)=O)cc1 | inactive
34 | COc1ccccc1NC(=O)Cc1noc(CSc2n[nH]c(N)n2)n1 | inactive
35 | O=C(CSc1ncnc2scc(-c3ccccc3)c12)NC1CCS(=O)(=O)C1 (stereo not drawn) | inconclusive: 19.9 µM [activator, partial curve]
36 | COc1cc2c(cc1OC)CN(Cc1cc(OC)c3c(c1)OCO3)CC2 | inconclusive: 28.2 µM [inhibitor, partial curve]
37 | COc1cccc(CC(CC(=O)O)C(=O)Nc2cc(C)ccc2C)c1 (stereo not drawn) | inactive
38 | O=[N+]([O-])c1ccc(S(=O)(=O)Nc2nc(-c3ccccc3)cs2)cc1 | inconclusive: 20 µM [inhibitor, partial curve]
39 | O=C(NC(=S)Nc1ccc(N2CCOCC2)cc1)c1ccco1 | inconclusive: 19.9 µM [inhibitor, partial curve]
40 | COc1ccccc1N1CCN(C(c2cc3cc(C)ccc3[nH]c2=O)c2nnnn2C2CCCC2)CC1 (stereo not drawn) | inconclusive: 12.6 µM [inhibitor, partial curve]
41 | COc1cc(NC(=O)CN2C(=O)c3ccccc3Sc3ccc(C(=O)N4CCOCC4)cc32)cc(OC)c1OC | inconclusive: 22.3 µM [inhibitor, single point]
42 | Cc1sc2ncnc(NCCCO)c2c1C | inactive
43 | CC(Cc1ccc(O)c(O)c1)(NN)C(=O)O (stereo not drawn) | inconclusive: 15.8 µM [inhibitor, single point]
44 | CCOc1cc(N2CCOCC2)c(OCC)cc1NC(C)C(=O)N1CCN(CC)CC1 (stereo not drawn) | active: 5 µM
45 | O=P(N1CCCCC1)(N1CCCCC1)C(Cl)(Cl)Cl | inactive
46 | Cc1[nH]n(-c2ccccc2)c(=O)c1/C=N\NC(=O)C1COc2ccccc2O1 (stereo not drawn) | inconclusive: 39.7 µM [activator, single point]
47 | C=CCNC(=S)N1CCN(CCN=CC2=C(O)CC(c3ccco3)CC2=O)CC1 (stereo not drawn) | inconclusive: 28.1 µM [inhibitor, partial curve]
48 | Cc1onc(-c2c(Cl)cccc2Cl)c1C(=O)Nn1cnnc1 | inactive
49 | Cc1ccc(Cc2cnc(NC(=O)C3=NCCN3)s2)cc1 | inconclusive: 25.1 µM [inhibitor, single point]
50 | COc1ccc(OC)c(S(=O)(=O)N(C)CC(=O)Nc2ccc3c(c2)OCCO3)c1 | inactive

Row | Compound | Potency
51 | CC(=O)Nc1ccc(N/C=C/C(=O)c2ccco2)cc1 | inconclusive: 15.8 µM [inhibitor, single point]
52 | NNC(=S)Nc1ccc(Cl)cc1 | inconclusive: 22.3 µM [inhibitor, single point]
53 | Cc1nc(N2CCCCCC2)c2ccccc2n1 | inconclusive: 11.2 µM [inhibitor, partial curve]
54 | CCOc1ccc2nc3cc(N)ccc3c(N)c2c1 | inconclusive: 6.29 µM [inhibitor, partial curve]
55 | O=C(CCCc1c[nH]c2ccccc12)N1CCOCC1 | inactive
56 | Cc1c(-c2ccccc2)sc(N)c1C(=O)N1CCOCC1 | inconclusive: 15.8 µM [inhibitor, single point]
57 | Nc1cc(C(=O)O)ccc1Sc1ccccc1C(=O)O | inconclusive: 22.3 µM [inhibitor, single point]
58 | O=C(O)c1ccc(N2CCCCC2)cc1O | inactive
59 | CC1=CC(=Nc2c(C)n(C)n(-c3ccccc3)c2=O)C=C(C)C1=O | inconclusive: 17.7 µM [inhibitor, partial curve]
60 | Nc1ccc(O)c(-c2nc3ccccc3s2)c1 | inconclusive: 3.15 µM [inhibitor, partial curve]
61 | COC(=O)CSC1=C(C#N)C(c2ccccc2F)CC(=O)N1 (stereo not drawn) | inconclusive: 7.92 µM [inhibitor, partial curve]
62 | Cc1ccc(/C=C2\SC(N3CCCC3)=NC2=O)cc1 | inactive
63 | CNc1ccc(Br)cc(C(=O)/C=C/c2ccc(OC)cc2OC)c1=O | inconclusive: 5 µM [inhibitor, full curve]
64 | CC(=O)NC1CCCN(O)C(=O)/C=C(\C)CCOC(=O)C(NC(C)=O)CCCN(O)C(=O)/C=C(\C)CCOC(=O)C(NC(C)=O)CCCN(O)C(=O)/C=C(\C)CCOC1=O (stereo not drawn) | inconclusive: 17.7 µM [inhibitor, partial curve]
65 | O=C(Cc1cccs1)NC1C(=O)N2C(C(=O)[O-])=C(C[n+]3ccccc3)CSC12 (stereo not drawn) | inconclusive: 15.8 µM [inhibitor, single point]
66 | CCC(C)(C)NC(=O)CSc1nc(Cc2ccccc2)nc2ccccc12 | inactive
67 | Cn1nc(-c2ccccn2)nc2c(=O)n(C)c(=O)nc1-2 | inconclusive: 12.6 µM [inhibitor, partial curve]
68 | O=C(N/N=C/c1ccc(O)c(O)c1O)/C(=C/c1ccc([N+](=O)[O-])cc1)NC(=O)c1ccccc1 | active: 6.29 µM
69 | O=C(NCc1cccnc1)C(=O)Nc1nccs1 | inconclusive: 19.9 µM [inhibitor, partial curve]
70 | CCc1nnc(NC(=O)CSc2nncc(=O)n2N)s1 | active: 25.1 µM
71 | COc1ccc(OC)c(C2CC(=O)N3CN(c4cccc(Cl)c4C)CSC3=C2C#N)c1 (stereo not drawn) | active: 1.41 µM
72 | CCOC(=O)/C=C/C(=O)Nc1cccc([N+](=O)[O-])c1 | inactive
73 | CCOC(=O)N1CCN(S(=O)(=O)c2ccc(C(=O)NNc3nc4cc(C)cc(C)c4s3)cc2)CC1 | inconclusive: 17.7 µM [inhibitor, single point]
